The chains are these.
T1: UNK ZnF1-3 (human, UniProt Q9C0B0 31-174)
T1 sequence: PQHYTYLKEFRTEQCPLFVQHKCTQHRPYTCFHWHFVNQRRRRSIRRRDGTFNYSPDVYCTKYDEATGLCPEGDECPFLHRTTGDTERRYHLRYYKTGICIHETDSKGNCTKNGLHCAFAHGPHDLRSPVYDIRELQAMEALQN

B1: chr3:33945423:33945424:+_ENSMUSG00000027680_ENSMUST00000167354|mus_mus|motif|central (ssRNA)
RNA: GGGAGUUCUACAGUCCGACGAUCGGUAUUUUUUUUGACAGUUUUAUUUUGAUUGACAGGCCGAAGUCGUUCAAAUGUGACGGUUUCAUUGUAAGUGGCAUCACAAGCAGCAUAUUCAAUGACAUAAAACUCGCCUUUCAUCAUCAACAGAGGAUUGAGCAUCA
B2: chr6:42629286:42629287:-_ENSMUSG00000036667_ENSMUST00000045054|mus_hu|motif|central (ssRNA)
RNA: GGGAGUUCUACAGUCCGACGAUCGAAUAAUACCUUAUGGCCAGUCACAACCACCCGGCCCCGGCCAUAGCGGGCAGCCGCGGUAACACAGCCAUGGUAGGAAUCUAACCCUAGAGGAAAGGCUAAAGCCCCAUGCACUAGCAGCAACAGAGGAUUGAGCAUCA
B3: 148344039_148344431_7884_CDS_ENSMUSG00000025261_ENSMUST00000112622|mouse|control|control (ssRNA)
RNA: GGGAGUUCUACAGUCCGACGAUCUAGAGCUGUUGGGAUGCUGGACAGGGUUCCUGCUUGGCUAGUGGCUGUACUCUGGUCAUGAAAAAAGUCAUCCAGCAGCUCGUCAUCAGACCUGGCGAUGAUAUGGACGUCAUCAUUGCCCAACAGAGGAUUGAGCAUCA
B4: 36995896_37000584_3822_CDS_ENSG00000164190_ENST00000448238|human|control|control (ssRNA)
RNA: GGGAGUUCUACAGUCCGACGAUCUCUUCCUUCAUGAGAGUGGCCACUUCUCCUAUGAUCCCCAGAGCUUCUUCUGUCACGCUCUUCAUAUUCCCAAGCUUUAUCAUCAUCUUUUUUAUGUCGUUUCCUAGAGGAUUCAAAAGCCAACAGAGGAUUGAGCAUCA
B5: chr4:99997923:99997924:-_ENSG00000197894_ENST00000296412|hu_hu|FALSE|FALSE (ssRNA)
RNA: GGGAGUUCUACAGUCCGACGAUCAGCACCAUAACCGGUUGAAAUGCCACAACCUAGAAGGCAGACUUUAUCCAAAGGUGCUAAAGGAUCUAUUUUAGCAACAGAGAUAUCAGCCACAACUGUGUAUUCAGAAAAUGUGCUGGUCAACAGAGGAUUGAGCAUCA
B6: chr22:32879901:32879902:+_ENSG00000100225_ENST00000397426|hu_mus|hu_hu_hu_mus_False|38_108 (ssRNA)
RNA: GGGAGUUCUACAGUCCGACGAUCCUCUGCCAUAUGCAUGGCAUCCUGAAUUGACUCAGCUUCAACAUUUUGACUAGGCCCUUCCAUACUGUCAUCAUUCCAAACACCAAAUGGGGUGGCCUGUCCUUGGGAUGAAUCAGUCCCCAACAGAGGAUUGAGCAUCA
B7: chr3:176740097:176740098:-_ENSG00000177565_ENST00000430069|hu_mus|hu_hu_hu_mus_True|1_18 (ssRNA)
RNA: GGGAGUUCUACAGUCCGACGAUCUGUUUUGUAUACCACAAAAGGAGGCACUUUCAGUAUCUGCAAAAGGUGUUUAGUCCUAAAACAUACUCACCUAGAGGAUAACUCAGGAAAACAUCAAUACAAUCUCUAAGACCUUAGGAACAACAGAGGAUUGAGCAUCA
B8: chr4:115894766:115894767:+_ENSMUSG00000028698_ENSMUST00000030464|mus_hu|mus_mus_mus_hu_True|18_68 (ssRNA)
RNA: GGGAGUUCUACAGUCCGACGAUCUUCCACACGGAAAUGUACUUCGGGUUUUCCAACGGCCAGUACCGUCCAGCCAAAACUACCCGAACAGGGUCCUCCCCCUCUCUCCUACAGAACUAAAGCACCCGCCCCCGAACUUUCAAGCAACAGAGGAUUGAGCAUCA
B9: chr4:103720638:103720639:-_ENSG00000109332_ENST00000394803|hu_mus|FALSE|FALSE (ssRNA)
RNA: GGGAGUUCUACAGUCCGACGAUCGAUCCGUGCAAUCUCUGGCACUAGGGGGUCGUCUGGGUUUGGAUCACAUAGCAGUGAACAAAUGGAUAAAAGAACUUUAGAAAUAGUUAAAGCAGGAGACCACUGUGAUCUUAGAAUAUCCAACAGAGGAUUGAGCAUCA
B10: chr19:26852702:26852703:+_ENSMUSG00000024921_ENSMUST00000025862|mus_hu|FALSE|FALSE (ssRNA)
RNA: GGGAGUUCUACAGUCCGACGAUCAUUACUGGAAUUUUAUUUGCCUCAGGCUUAUGACUUGCAACCAAAGACAUUGUGCAAAGAAAGCAAAGAUUAAGUACACUUUAGGGAGAAGGAGACGAUACACAUUGGUAACAUAGGAGACAACAGAGGAUUGAGCAUCA
B11: chr7:108143013:108143014:-_ENSG00000135241_ENST00000257694|hu_hu|FALSE|FALSE (ssRNA)
RNA: GGGAGUUCUACAGUCCGACGAUCGAGAAUUCGGAUUCCUCUCCCUUUCACUGGAUCCACAUAGCCAAUUAGGGCCAAAAUUUCUCUAACUGCAGCCUGAAGAGUUUCAUCCUUAAUUUGUCUCAGUCGUAAUAAAUAUGGAAUCAACAGAGGAUUGAGCAUCA
B12: chr9:59236566:59236567:-_ENSMUSG00000025234_ENSMUST00000171975|mus_mus|FALSE|FALSE (ssRNA)
RNA: GGGAGUUCUACAGUCCGACGAUCGUGCACAGUUUUCAUUUAUGAAGGAGCCGUUUUCCCACUGUUGUUUACCUUAAAAAAAAAAAAAACAAAACAAAAAACCCUCAACUCCCAAGUUGAUAGGUGCAUACCUGUAAUCCCAGUCAACAGAGGAUUGAGCAUCA
B13: chr11:60966614:60966615:-_ENSMUSG00000042506_ENSMUST00000041683|mus_hu|motif|central (ssRNA)
RNA: GGGAGUUCUACAGUCCGACGAUCACUGAGCAGUGAGUAGCAGCUGCCACUGUCACUACCCCCUCCCCAGCCCAGCCAGCGGAGGAGCUGGGUCUGGUCCCCACCAGCUUCUCCAUGGCCUGUGAGCUAAGAAUAGGUUUCACGCAACAGAGGAUUGAGCAUCA
B14: chr6:42636609:42636610:-_ENSMUSG00000036667_ENSMUST00000045054|mus_mus|motif|central (ssRNA)
RNA: GGGAGUUCUACAGUCCGACGAUCGGCAUCAAUGCAGUAAACCCCCAGGGAGUCAUUGACUUCUGGCUCAAUCUUUGACUCGGUUCCACAGCUCUCGAGAAUUUUCACCAAUGGUGCUAAAGAUGAGUGCACACCAAUGGCUGACAACAGAGGAUUGAGCAUCA
B15: chr11:80292881:80292882:+_ENSMUSG00000048895_ENSMUST00000053413|mus_mus|motif|central (ssRNA)
RNA: GGGAGUUCUACAGUCCGACGAUCCAGCUUAAAAUUAACAAUUGGGGGGGGGGGGCAGGGAUGGGAAACAGCAACACCCCGGUUGACUGAUCUCACCUCCCCCCAACGAUACAGAACAAAGAUCACGGGCACCAGCGAGAGGCCCAACAGAGGAUUGAGCAUCA
B16: chr2:153237265:153237266:-_ENSMUSG00000061411_ENSMUST00000109784|mus_mus|mus_mus_mus_hu_False|8_8 (ssRNA)
RNA: GGGAGUUCUACAGUCCGACGAUCAAAAAAAAAAAAAAAAAAGUGUCCUUGUGCCCAAAGUCUCAGGUGCUUGGAGUGUGGCUAGAAACAGCUCUUUUGGAUCCCACCUCUUUCAAAAACAAAAUGUCCAACUGGUGGAGGCAGCAACAGAGGAUUGAGCAUCA
B17: 31982884_31984648_436_CDS_ENSG00000101391_ENST00000346416|human|control|control (ssRNA)
RNA: GGGAGUUCUACAGUCCGACGAUCAUUCACAUUCAUCUGGCAGCCAUAGGUCUCGAGGUAGACUUUUCUCUGCCUUCCAAGAAGUUCAUCCAUCAUGAGAUAGGGAGGUGGGUCUUCCACUUCUGAAGACAGCUUCUCCUGAGGCAACAGAGGAUUGAGCAUCA
B18: 3712656_3714518_4735_CDS_ENSG00000110713_ENST00000324932|human|control|control (ssRNA)
RNA: GGGAGUUCUACAGUCCGACGAUCGCCAGAACCCUCCAGAUACGAAGGAAGUGGGGAGCAGGCAUAUCUGUCACUGUCAGAGGUAUUCUGAAAUGCUUCUUCAUACAUGCUGAGCGCCCUAGAAAUGGAGGCUGUUGGUGGAAGCAACAGAGGAUUGAGCAUCA
B19: 134322000_134322562_941_3pUTR_ENSG00000130723_ENST00000357304|human|control|control (ssRNA)
RNA: GGGAGUUCUACAGUCCGACGAUCAAGGAACUCGAGGUUCAAGGCGGAGCUGAGGAAGGGGAAAAGAGCCUCGUUCCACUGUACCCUGGUUUUCUGAUGACUUCGGCGAACACAUAAAAGCAGGAAGCAUGUCAUGGUAUGUAGCAACAGAGGAUUGAGCAUCA
B20: 216279640_216284043_2066_CDS_ENSG00000115414_ENST00000323926|human|control|control (ssRNA)
RNA: GGGAGUUCUACAGUCCGACGAUCCGGAGUCUCAGUGAUAAAUACUUCGACAGGACCACUUGAGCUUGGAUAGGUCUGUAAAGGUUGGCAAUGCCACUCCCCAAUGCCACGGCCAUAGCAGUAGCACUGGUAUCUGACACCAUGCAACAGAGGAUUGAGCAUCA
B21: chr8:13935169:13935170:+_ENSMUSG00000038365_ENSMUST00000043520|mus_mus|FALSE|FALSE (ssRNA)
RNA: GGGAGUUCUACAGUCCGACGAUCCGGGUAAUACUUCUGAAGCGUGAAAUACAUCAGCUUCCACUCGAUAUGACCUUUUUCUGAAAGGAUCAAAUGUCUACAAAACUGCUGCUCAGCAAAGUGGUACUGACACAGUCGCUUCCACAACAGAGGAUUGAGCAUCA
B22: 64573157_64573738_1184_CDS_ENSG00000133895_ENST00000312049|human|control|control (ssRNA)
RNA: GGGAGUUCUACAGUCCGACGAUCCUCCUUCAGCAGGUUGGGGAUGACAUCAUUGGCUACUUCAAAGAACUCCUUGUAGAUCUCCUCGUCUUCCCGGCAGUAGUUGUAGUCCUGGAUGACAGUGGCCGUGUCCGCCCAGGCCUGCAACAGAGGAUUGAGCAUCA

This is one part of the list.

The assay addresses T1, UNK ZnF1-3. The assay is described as follows: nsRBNS (natural sequence RNA bind-n-seq); RBNS binding buffer (assumed for nsRBNS): 25 mM Tris pH 7.5, 150 mM KCl, 3 mM MgCl2, 0.01% Triton X-100, 500 ug/ml BSA, 20 U/ml SUPERase-In, 4 C; UNK is unkempt and MSI1 is Musashi-1; names of the RNAs are library labels; protein concentration not given here; high values mean tight binding.
Molecule B1 gave a binding signal of 0.971 enrichment R. In turn, B2 showed a binding signal of 1.43 enrichment R. As to B3, the binding signal is 0.712 enrichment R.

Molecule B4 showed a binding signal of 0.763 enrichment R.

Take B5: the binding signal was 3.05 enrichment R. The molecule B6 gave a binding signal of 0.754 enrichment R. On to B7, for which the binding signal was found to be 0.78 enrichment R. On to B8, for which the binding signal stood at 1.19 enrichment R. Molecule B9 showed a binding signal of 3.2 enrichment R. With B10 the figure was 1.34 enrichment R; with B11, 0.935 enrichment R. As to B12, the binding signal stood at 2.36 enrichment R.

Take B13: the binding signal worked out at 0.908 enrichment R. The result for B14 reads 1.07 enrichment R; that for B15, 1.13 enrichment R. Take B16: the binding signal was 3 enrichment R. In the case of B17, the binding signal was 0.659 enrichment R.

With B18, the binding signal came out at 1.37 enrichment R. In turn, B19 displayed a binding signal of 1.65 enrichment R.

B20 returned a binding signal of 0.709 enrichment R.

Regarding B21, the binding signal came out at 0.589 enrichment R. The molecule B22 had a binding signal of 1.04 enrichment R.
